Reference: the supplement of paper PMC5499739
In all, about 16,000 sequences were measured (“Z-score”: median about -0.37, highest 2% from about 3.2 on). The list shows a part of the results.

test system: RBM10 RRM1-ZnF (GST-tagged construct); assay: RNAcompete 7-mer binding Z-score; higher = stronger binding preference
Protocol: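 RNAcompete: 20 pmol GST-tagged RBM10 RNA-binding constructs were incubated with a designed RNA pool of about 241,000 sequences up to 41 nt (1.5 nmol) on glutathione beads for 30 min at 4 °C and washed. Bound RNAs were identified by microarray hybridisation. Each RNA 7-mer is scored by a one-sided Z-score of its enrichment, computed over probes that contain the 7-mer within longer pool sequences.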

Sequence	RNAcompete 7-mer binding Z-score
UAGAUGG	2.26
UCAGGGA	2.02
AAAUAUG	-0.0577
AUUUGAC	-0.626
AUCGUUU	-0.626
UAGUCUC	-0.733
AUGGCUA	0.43
UGAACCU	-0.604
GCGGUGG	2.85
AACGCCA	-0.552
AAUUAAU	-0.422
UCGUUUC	-0.737
CCGCCGG	-0.35
UUUGAGC	-0.503
CCGACAG	-0.522
UCAGGGG	1.81
AACCCAG	-0.34
GUGCACU	-0.00896
AGUUUCC	-0.733
GCGAAAC	-0.123
UUUCCCG	-0.854
UCGGCCG	-0.636
CUAAGAA	-0.331
CUAUGAA	-0.441
CGCAUUU	-0.876

Sequence	RNAcompete 7-mer binding Z-score
CCCGAGU	-0.412
AUGGUAA	2.2
CUUGCUA	-0.87
CCGAUCA	-0.707
AUUAAAG	0.186
CUCUGUU	-0.808
UGCAUUC	-0.594
CAUCCCC	-0.626
AUAAUUA	-0.506
GCAGAUG	1.24
ACUUUUC	-0.88
UCGAGCA	-0.324
CAAGGAU	1.36
GGCAUAA	0.157
AACAGAC	-0.116
CAAAGUA	-0.223
GGCUAAA	0.586
GCUUUGG	0.0333
UGCAGUA	-0.103
UUGAUCU	-0.665
GGUCCGU	0.157
CGCCUAC	-0.646
GCUUGGA	0.316
AGUGGCA	1.18
GAUGUCC	-0.513

Sequence	RNAcompete 7-mer binding Z-score
GGUAAUA	1.23
GAGUACA	0.215
UAGAUCU	-0.607
GGCACUA	0.335
UACAGUA	-0.0544
GAUCCGA	-0.698
GUUUGCG	0.228
GCUUUUU	-0.837
CUAGAAA	-0.409
CGUAUAC	-0.477
ACCGCGU	-0.727
UCCAAUA	-0.642
ACAAAGC	-0.529
CCUAAAA	-0.763
UGCCCGG	-0.191
GCUAAAG	-0.0479
AUUAUAC	-0.688
AUAGGGU	3.61
UAUUCUA	-0.743
CUGCUGG	-0.236
UAGUUUA	-0.389
GAAACCC	-0.568
AAAUGGC	1.05
UUUCAGC	-0.675
CAUAUAC	-0.655

Sequence	RNAcompete 7-mer binding Z-score
GAUAUGG	3.3
AGCGAUG	0.995
GUAAGAU	0.504
UCAAGCC	-0.818
AGAUCAU	-0.646
CAGGUCG	0.475
GUUGAAA	0.439
ACUCCAG	-0.574
GCAGUCC	-0.623
CACCGAU	-0.519
UUGAGAG	0.664
GUUCCUU	-0.639
AAUAUAU	-0.405
GUUCUCU	-0.707
UUGGCCC	-0.376
GGGGCAU	2.54
CGUAGGG	1.94
UACCUAU	-0.629
AUGGGGA	4.27
AUCGGUC	-0.448
GGGUGCA	2.74
UCGGAAU	0.137
UGCCCGU	-0.448
CCUACUU	-0.889
GGCGGCA	1.05

Sequence	RNAcompete 7-mer binding Z-score
CGGUGCA	0.205
AGAUGGC	0.374
CUUGGAC	-0.444
AUGCGUA	-0.23
GAGGACA	1.5
GCGCAAG	0.0593
UAUCCAC	-0.503
GUUUAAA	-0.389
UUUGGUC	-0.353
GGCAAAU	0.465
UUGUUUC	-0.642
CAGUGAU	-0.246
CUGAUGU	-0.152
GUGGACA	1.74
CUGGCGG	0.508
AGCUUGC	-0.681
UACCAGU	-0.568
AGAUAGG	2.44
UCAGGAC	-0.129
UACCAAC	-0.668
UGCGGGA	1.87
AGGUGAU	1.8
GAAAGUA	0.709
GCGGCCC	-0.256
UGAAGUC	-0.301

Sequence	RNAcompete 7-mer binding Z-score
GAGUAUU	-0.178
GCGCUGU	-0.0772
UUUGUUU	-0.282
CAGUACA	-0.249
CUCCGGG	0.42
GUGGAGU	2.67
GAACUCA	-0.548
AUAUACA	-0.6
CCUAUGA	-0.772
UCCUCGC	-0.779
GAAAAAA	0.163
UCACCUC	-0.75
UGGUGUU	1.22
GCAAUAA	-0.249
GCUCGUA	-0.431
CCUAACU	-0.753
ACACAAA	-0.493
CUUUGUU	-0.85
AUGACUU	-0.72
GGUGGCG	2.74
AAGCGCA	-0.152
UGACUAC	-0.373
CGCCGUU	-0.704
AAGACAC	-0.389
UGGUCUG	0.475

Sequence	RNAcompete 7-mer binding Z-score
CAUAACU	-0.548
CUCGUCU	-0.798
UGUGUAA	0.303
UUGAAAU	-0.412
CGUAAUA	-0.561
AGUUUCA	-0.681
UGAAUGC	-0.318
UAUCACG	-0.324
CUUUGGA	-0.383
GGAAACA	1.51
CUAUCCU	-0.841
GGAGCAA	1.71
GUUAUAU	-0.236
CCUGCCU	-0.506
GUGAAGA	1.09
UCAUCCA	-0.795
CAAUCAG	-0.175
CGGAUGA	1.15
ACCUUAU	-0.945
CCGGCUU	-0.876
CGAUCAC	-0.587
UGAAUCU	-0.457
UAAUUGU	-0.571
ACGAUUG	0.0495
UGUGCUU	-0.678

Sequence	RNAcompete 7-mer binding Z-score
CGUAGAA	0.189
CCGGCUG	-0.21
GCAACUG	-0.171
GCGUAAC	-0.0674
ACGUAGC	-0.269
AUUACAA	-0.331
GAUAUCC	-0.636
AUUCCUG	-0.818
UGUAGCC	-0.448
CAUGCUC	-0.655
UGUCUCC	-0.548
GAAAAGC	0.309
CCAAAAC	-0.863
GUGCUCG	0.00404
ACUCAAC	-0.642
UUGAAUC	-0.483
UAGGUUU	0.829
AAUACAG	0.0625
GUUCUGU	-0.431
CCACACA	-0.685
AUACCUA	-0.808
CGCCGCA	-0.626
AUACGCA	-0.399
AUUCCGA	-0.815
CAGUUAA	-0.389

Sequence	RNAcompete 7-mer binding Z-score
GCUGGCU	-0.0187
UUUGGCC	-0.584
UACCCAC	-0.629
AACAGCA	-0.357
GAGGAUG	3.1
CAUGCAA	-0.451
CGACGUA	-0.129
UGGCGUU	0.102
CGUUAUA	-0.529
UGACAGA	0.186
GAGGGCG	2.27
CCAUUCC	-0.893
AUAGCAG	0.358
AGAAGAG	1.64
CUUACCU	-0.815
UGAUGCG	0.55
GUGAUUC	-0.334
ACGUCAG	-0.269
CCCUGGA	-0.123
GGCACGA	0.628
GUGUUAA	-0.0447
UCAUCCC	-0.795
AGUUCCC	-0.594
GAUGCGA	0.371
UGCGUGA	0.134

Sequence	RNAcompete 7-mer binding Z-score
AGUUAAG	0.153
GGCCCGU	-0.532
UCUGGGC	0.0268
CAGACUC	-0.62
UCCAUGG	-0.288
CUUAUGC	-0.831
CGCUGUA	-0.399
ACAAAAA	-0.461
UCCAUCA	-0.753
CUACCUG	-0.945
GUAUUAC	-0.233
UAGCUUG	-0.392
GACGUCA	-0.402
AUACGAA	-0.194
GAAUCCC	-0.578
ACCUCGG	-0.399
ACAGGAC	0.82
AAGCCCC	-0.659
CAGCUUC	-0.73
CCCUUGC	-0.694
CCAUGGG	0.67
UGCAGGG	2.57
GGCCAUA	-0.49
AGGUCGU	0.179
CGCGCCC	-0.269

Sequence	RNAcompete 7-mer binding Z-score
GAGGUGG	3.35
AAGCGAC	0.0268
UCGUCUA	-0.626
UUAAUCC	-0.811
GAGUCGU	0.199
UGAGCAA	0.0918
UCGCGAC	-0.451
UUGGACU	-0.0967
GUACAAG	0.446
AAAUUAA	-0.5
ACAGCCU	-0.883
UCUAAAU	-0.633
UAGUUAU	-0.467
CUGUACC	-0.837
CCGACCU	-0.867
ACUUUUA	-0.714
UAGAGGG	2.77
CAGCAAG	-0.0804
UACUAUU	-0.694
CACGAUU	-0.545
AUCGAAU	-0.604
UGCAUAA	-0.457
CAGUGCG	0.0203
UCUCAAU	-0.717
CGGAGGU	2.41

Sequence	RNAcompete 7-mer binding Z-score
AUACGUG	0.202
GGGGGAU	3.32
CCCGGAC	-0.22
AAGCUGG	0.904
UUACUAG	-0.331
CCACGCA	-0.558
AGGUCAU	-0.214
GAACUGU	-0.24
AGGCGUU	0.00729
GAAGUAA	0.446
UGGAUGA	2.17
GAGAUAG	1.19
GCAUAAU	-0.415
AAGCGUG	0.664
ACUGUUA	-0.565
GGCCGCU	-0.405
CCAGUAG	-0.168
CCCUCGC	-0.438
GACCAGU	-0.474
UCAAGUU	-0.565
UUGUCUU	-0.711
AUGUUCC	-0.714
UUGUCGG	0.0755
CUGCCCG	-0.227
UAAUAUA	-0.448

Sequence	RNAcompete 7-mer binding Z-score
UGUGGGG	3.96
CAAGAGU	-0.0155
GCUGACA	-0.0512
UUGUACU	-0.733
GUACCAU	-0.568
UGGGGGG	4.02
UUGGUAC	0.573
GGGUGCU	2.53
UUUCGCU	-0.818
UUGCGGC	0.0528
AAUUAGU	-0.301
GGAUGGA	4.23
CAUGCGA	-0.171
CCUCCCG	-0.422
UUGGCAG	0.595
GGAUUGU	1.22
CCGUCCC	-0.503
UAAUAAU	-0.487
CCAAUGG	0.212
ACACCGU	-0.571
UCGGAUA	0.118
GCUACCA	-0.474
GUGUCGU	0.15
UGGGACC	1.36
CUUGUUU	-0.766

Sequence	RNAcompete 7-mer binding Z-score
AAUGUCC	-0.743
AAUUAGA	-0.106
CACGAAU	-0.249
AAUUCUG	-0.756
GGUGUAA	1.75
GCCUUUC	-0.984
UAACGCU	-0.681
UUUCGUC	-0.811
UUGGGAU	2
CACCAGU	-0.509
UACACAU	-0.392
UAUAUCC	-0.691
GCGAUUG	0.212
GUACUCG	-0.165
UUAAGCG	-0.522
CGAACAC	-0.613
AUCUCGC	-0.75
GACACAC	-0.366
GCCAUUA	-0.714
GAUUAAA	-0.0967
AGCCACG	-0.188
AGUGCUU	-0.532
UGACUGU	-0.646
UCCCUUU	-0.912
GCAGGGC	1.35

Sequence	RNAcompete 7-mer binding Z-score
UACGGUA	0.758
AGGACUC	-0.425
CUGGCCC	-0.168
UUGAUGC	-0.337
GGCUACG	0.602
CUCCGUC	-0.935
UGAAUAC	-0.366
CCCAGCC	-0.324
GGUCGUG	1.25
CUUCCAU	-0.766
CGCCAUA	-0.594
CUUUUUU	-0.948
AACACGA	-0.314
CAAUGUU	-0.649
AGAGGAC	0.615
UGAACAU	-0.373
GUUGCGC	0.215
